Source: the supplement of paper PMC3334620
Over roughly 33,000 sequences, “E-score (-0.5 to 0.5)” has its median near -0.021; the highest 2% begin near 0.32. This is one part of the list.

Target: T1, Zap1 (UniProt P47043)
T1 sequence: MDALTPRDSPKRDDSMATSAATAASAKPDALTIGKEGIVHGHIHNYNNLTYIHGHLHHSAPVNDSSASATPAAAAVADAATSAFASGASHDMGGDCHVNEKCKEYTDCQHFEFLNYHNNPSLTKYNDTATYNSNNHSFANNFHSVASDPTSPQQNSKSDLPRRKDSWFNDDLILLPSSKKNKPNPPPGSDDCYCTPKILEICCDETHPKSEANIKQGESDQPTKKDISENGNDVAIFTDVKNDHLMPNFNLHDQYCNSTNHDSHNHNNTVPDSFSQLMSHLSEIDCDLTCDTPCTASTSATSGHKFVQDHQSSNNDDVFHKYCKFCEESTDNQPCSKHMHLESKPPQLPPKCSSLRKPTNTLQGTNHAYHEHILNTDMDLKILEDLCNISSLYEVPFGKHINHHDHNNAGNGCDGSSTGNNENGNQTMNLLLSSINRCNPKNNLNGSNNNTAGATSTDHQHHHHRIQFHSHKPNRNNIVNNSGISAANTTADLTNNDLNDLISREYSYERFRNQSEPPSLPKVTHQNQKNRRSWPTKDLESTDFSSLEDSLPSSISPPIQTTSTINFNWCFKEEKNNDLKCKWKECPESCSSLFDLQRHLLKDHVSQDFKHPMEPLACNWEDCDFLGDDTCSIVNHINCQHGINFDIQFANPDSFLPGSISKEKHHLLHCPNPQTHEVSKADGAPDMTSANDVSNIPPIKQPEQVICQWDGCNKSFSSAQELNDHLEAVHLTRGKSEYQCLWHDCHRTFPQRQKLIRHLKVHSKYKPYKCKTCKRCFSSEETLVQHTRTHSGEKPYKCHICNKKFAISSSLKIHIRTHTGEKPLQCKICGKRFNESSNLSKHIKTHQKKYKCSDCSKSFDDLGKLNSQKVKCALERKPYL
Assay: PBM E-score (8-mer binding enrichment) (E-score (-0.5 to 0.5)); higher = stronger / more preferred TF binding; most listed sequences are background and not binding sites
Settings: protein concentration: 200 nM; construct: GST-full length
How it was run: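 Detection of bound protein used fluorescent anti-GST, with scans normalised by masliner. The proteins were GST-tagged yeast transcription factors applied at about 100-200 nM to universal all-10-mer Agilent arrays made double-stranded by primer extension. Each ungapped eight-base word, pooled with its reverse complement, was scored with an E-score from the Universal PBM Analysis Suite.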

Sequence	PBM E-score
CAAGATGC	-0.0715
ACATCGCA	-0.133
GCTTCGTA	-0.0463
CATCAGGC	-0.16
CAAGTATC	-0.0887
ATAAAATC	-0.0354
AGTCACTA	0.14
ACGAGGTG	0.144
ACAATGTA	0.101
TCACATAA	0.154
GCCCGAGC	-0.151
ATCGTTAC	-0.0624
ACCACGCT	-0.117
ATAGGTTG	0.16
GAGAGTAA	0.0833
ATGAGGGA	-0.25
AGATGTTG	-0.165
AGTTTAAA	0.207
GACGCTCA	-0.0401
GCAGAAGC	-0.276
AGGTCGGG	-0.0173
AGCTAGCA	-0.204
ACAGTTAT	0.131
GACCCCAA	0.172
CCATGTGC	0.0395

Sequence	PBM E-score
AATGCAGT	-0.0643
ACTGGATG	-0.125
AGCCAGGG	-0.0473
AGCCTCTC	-0.189
CCACACCG	0.0203
CAGCAGCG	-0.0602
CCTGCGAC	-0.142
CGTAAGCA	-0.143
CAGTCCAG	-0.16
AGATAAAC	0.156
CGGGCCAG	-0.195
CTTGGGGC	0.0259
CAGCGCAA	-0.148
AAGACATG	-0.277
GGCCCAAA	0.0929
ACTGGACC	0.0613
GAATGTGC	-0.196
ATCATGAA	0.119
GATTATAC	0.0748
AAGCCAGG	-0.166
ATCCCCGC	-0.0253
CCGACCAG	0.0232
TGCTGCAA	0.106
CTACTCGC	-0.18
ATAGGTGA	0.0727

Sequence	PBM E-score
CCGGAACC	0.279
CAGAGCAA	-0.0527
CATGACTC	-0.0866
CTGGTGCA	-0.12
TGGCGGAA	-0.103
TCCCCCAA	-0.232
GGATTTAA	0.0103
ACCGGAAA	0.202
CTGTGATC	0.0348
AAATCTAT	0.0866
GCCCATAC	0.0694
GACTGTCA	-0.047
CAAGGGAA	-0.00803
CTTTAATC	0.109
CAGAAGTC	-0.293
TATAGCAA	-0.0234
AGTGAACC	0.165
CACGAAAG	0.104
ACCGCGCC	-0.0982
GTCTTAAA	0.0565
CATACGTC	-0.17
CGCCCTAA	-0.126
ATAATCTA	0.251
GGCGTCCC	-0.0733
ATAAGACC	0.0755

Sequence	PBM E-score
CAGCCAGC	-0.396
CGCCGGAA	-0.0648
AACCTTGA	0.429
ACCGGCCT	-0.00629
CTGTCCCC	-0.235
GACACCAA	-0.0435
GGCGCCTA	-0.26
AATACGGA	-0.106
CTTTGTTC	0.208
AACGAGAG	-0.138
TAGAGCTA	-0.0548
AAGGGTGT	0.316
AGATTAAT	0.0696
CCCACGGA	-0.0341
GGTCTCAC	-0.0454
ATGGTACG	0.176
ATGCACAC	-0.00754
AATTCGTG	-0.0517
CATGATAG	0.0631
CCTTGCTC	-0.092
CAAAGCGA	-0.00778
CGAACTTC	-0.132
CTAAGCGC	-0.0701
CAGCCTGC	-0.21
AAGGACGG	-0.256

Sequence	PBM E-score
ACAAGCAA	0.0842
CCGTTCCG	0.00545
CGATGTAC	0.064
ACCCCAGA	0.224
AGCTGCCG	-0.159
ACCCGCCA	0.085
AGACCCAG	-0.18
GTCTACAA	-0.0956
CTCGGACC	-0.116
GAATAATC	0.143
CAGATTAA	0.118
AACCGTAA	0.231
GTCTGAAA	-0.0251
GTTTCATA	-0.0343
AACTTCGG	0.0485
ATTTCAGA	-0.115
CGCAACGA	0.13
TTCGGCAA	-0.00159
CAGATGCG	-0.106
AAACTAGG	0.166
CTCAAAAA	0.0917
CGTTCCAA	0.0539
TAAGAAAA	0.129
GGTCCCCA	0.151
GTTGAACA	-0.15

Sequence	PBM E-score
AGCCCTCA	-0.192
GCCCGTAC	-0.156
CCACAAAC	0.147
GGTCTGCA	0.126
ACGCTCAT	-0.114
CGCTACGC	-0.318
AAAGGGAC	0.0521
ATTTCGGG	-0.0207
CTTTATAA	0.199
ACTCGACA	-0.111
ACTGGTAT	-0.0556
ACCGGGTC	0.293
CGGCGTAG	-0.263
ACATTTAC	-0.0287
ACAATTGC	-0.103
CTACGATC	-0.0779
ATTCAGAC	0.0646
CCTAGTGA	0.129
CGTTTTTA	0.174
GGGCATAC	-0.282
CTAAAGGC	0.0752
CTCTGTCA	-0.167
CTTACTTC	0.00964
CGAAAGTA	0.146
CTGTCCAA	-0.0805

Sequence	PBM E-score
GGTCTGAC	-0.00295
GGGCGCCA	-0.137
CCACCCTA	0.327
CCATTTCG	-0.121
GACTCGGA	-0.237
AACATAAC	0.3
CCGATTAG	-0.0444
ATCCTGGG	0.0369
CCATTTAG	0.125
CACCTGGA	0.0676
TCTTGTAA	0.105
ACGGAAGG	-0.0816
CTCGGTTA	0.187
CTATCAAA	0.0152
CCCCGAGC	-0.129
CTCCGGGC	-0.135
TCAAGCCA	-0.0541
AGATGCTG	-0.202
GCGTGCCC	-0.216
GAAAGGTA	0.363
CCTACGAG	-0.0116
CCTAGAGA	-0.0434
AAAAACCC	0.196
CTAGTGTA	0.0499
GCAGCTGC	-0.246

Sequence	PBM E-score
TCGGCGCA	-0.261
GATGCTCC	-0.301
CCCACCCG	0.324
AACTTCGT	-0.109
ATGTACTC	-0.138
ACGGCATC	-0.247
ACCCAATG	-0.0144
GTTTTTGA	0.0887
GTTGTGCA	-0.0759
CCGGTGGC	-0.225
AAGACGGT	0.0278
AGCCTCAA	-0.142
GCCTTCTA	-0.0749
ACCTTATC	0.203
ACACCTGA	0.115
ACAGGCAG	-0.262
GTTAGCGA	0.0456
AAGGAATC	-0.00239
ATTACCCG	0.239
ATGCTTCC	-0.171
ACACGGCA	-0.114
CTCCGCTC	-0.101
TCAGCTCA	-0.00847
CACTGACA	-0.0013
CTGTTCAC	-0.104

Sequence	PBM E-score
CATCAATG	-0.0471
CTCCGGTA	0.0407
AAAGTCTG	-0.0325
CCTTACCC	0.208
CTTCTATA	0.0339
CATACGAG	-0.132
AATACCCT	0.379
GCGCAGGA	-0.351
AAAGCTTG	-0.0232
GGGTTCTA	0.198
AAAAGCCC	-0.167
AGTGAGGA	-0.16
CCCGCACA	-0.171
AAGGTTGT	0.384
TTAACTAA	0.246
AACCTGGG	0.0157
GCAAAGTA	-0.0277
TCCCCACA	-0.196
CCGGTATA	0.0363
